According to PubChem BioAssay (NCI):
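All cell lines were grown in 96-well plates and treated with compound for 48 hours. GI50: concentration for 50% inhibition of growth.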 The source holds more than one record for some entries. Only these are listed. The source may hold further records. Values given together are repeated measurements across runs, samples, wells, individuals or studies.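 TGI denotes the concentration required for complete inhibition of growth.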 Marks in square brackets tell the records apart. Letters hold for one entry only.

Columns and labels:
Assay in all cases: DTP human tumour cell line panel, 48 h
786-0 renal = tested on: 786-0 renal
A498 renal = tested on: A498 renal
A549 NSCLC = tested on: A549 NSCLC
BT-549 breast = tested on: BT-549 breast
CAKI-1 renal = tested on: CAKI-1 renal
COLO 205 colon = tested on: COLO 205 colon
DU-145 prostate = tested on: DU-145 prostate
EKVX NSCLC = tested on: EKVX NSCLC
HCC-2998 colon = tested on: HCC-2998 colon
HL-60(TB) leukemia = tested on: HL-60(TB) leukemia
HOP-92 NSCLC = tested on: HOP-92 NSCLC
HS 578T breast = tested on: HS 578T breast
IGROV1 ovarian = tested on: IGROV1 ovarian
KM12 colon = tested on: KM12 colon
LOX IMVI melanoma = tested on: LOX IMVI melanoma
M14 melanoma = tested on: M14 melanoma
MALME-3M melanoma = tested on: MALME-3M melanoma
MCF7 breast = tested on: MCF7 breast
MDA-MB-231 breast = tested on: MDA-MB-231 breast
MDA-MB-435 = tested on: MDA-MB-435
MOLT-4 leukemia = tested on: MOLT-4 leukemia
NCI-H522 lung = tested on: NCI-H522 lung
PC-3 prostate = tested on: PC-3 prostate
RXF 393 renal = tested on: RXF 393 renal
SF-268 CNS = tested on: SF-268 CNS
SF-539 CNS = tested on: SF-539 CNS
SK-MEL-2 melanoma = tested on: SK-MEL-2 melanoma
SK-MEL-28 melanoma = tested on: SK-MEL-28 melanoma
SK-OV-3 ovarian = tested on: SK-OV-3 ovarian
SR leukemia = tested on: SR leukemia
TK-10 renal = tested on: TK-10 renal
U251 CNS = tested on: U251 CNS
UACC-257 melanoma = tested on: UACC-257 melanoma
UO-31 renal = tested on: UO-31 renal

## COc1c(OCCCN2CCOCC2)ccc2c3n(c(=NC(=O)c4cnc(N)nc4)nc12)CCN3
786-0 renal
  TGI: > 75 µM [sample A, mean of 2 tests] and 2.64 µM [sample B, 1 test] and > 100 µM [sample C, 1 test]
A498 renal
  GI50: 7.5, 21.1, 38.7, 13.9 nM [separate samples]
  TGI: 35.9, 139, 231, 53.5 nM [separate samples]
A549 NSCLC
  GI50: 29 nM, 92.4 nM [1 test] and 43.6 nM, 35.9 nM [mean of 2 tests]
  TGI: 826 nM, > 10 µM [1 test] and > 75 µM, > 100 µM [mean of 2 tests]
BT-549 breast
  GI50: 169 nM [1 test] and 61.7 nM, 74.6 nM, 36.7 nM [mean of 2 tests]
  TGI: 5.77 µM [1 test] and 690 nM, 1.42 µM, 2.18 µM [mean of 2 tests]
CAKI-1 renal
  GI50: 66.5 nM [1 test] and 67.2 nM, 93.5 nM, 29.9 nM [mean of 2 tests]
COLO 205 colon
  TGI: 1.59 µM, 1.4 µM [1 test] and > 75 µM, 1.89 µM [mean of 2 tests]
DU-145 prostate
  GI50: 195 nM, 219 nM [1 test] and 66.8 nM, 43.7 nM [mean of 2 tests]
EKVX NSCLC
  GI50: 86.3 nM [1 test] and 42.7 nM, 45 nM, 18.2 nM [mean of 2 tests]
  TGI: > 35 µM [sample A, mean of 2 tests] and 930 nM [sample B, mean of 2 tests] and 2.71 µM [sample C, 1 test]
HCC-2998 colon
  GI50: 162 nM [1 test] and 71.5 nM, 79.1 nM, 52.8 nM [mean of 2 tests]
  TGI: > 10 µM [1 test] and 5.17 µM, 1.31 µM, 1.41 µM [mean of 2 tests]
HL-60(TB) leukemia
  GI50: 6.05 nM [1 test] and 27.4 nM, 26.7 nM, < 10 nM [mean of 2 tests]
HOP-92 NSCLC
  GI50: 10.3 nM [1 test] and 11.2 nM, < 10.7 nM, < 10 nM [mean of 2 tests]
  TGI: 140 nM [1 test] and 434 nM, < 28.9 nM, 143 nM [mean of 2 tests]
HS 578T breast
  GI50: 33.1 nM, 4.64 nM [1 test] and 20.3 nM, < 10 nM [mean of 2 tests]
  TGI: 888 nM, 94 nM [1 test] and 639 nM, 250 nM [mean of 2 tests]
IGROV1 ovarian
  GI50: 12.8 nM, 6.69 nM [1 test] and 7.5 nM, < 10 nM [mean of 2 tests]
KM12 colon
  TGI: > 10 µM, 4.26 µM [1 test] and > 29.8 µM, 3.11 µM [mean of 2 tests]
LOX IMVI melanoma
  TGI: > 10 µM, 1.55 µM [1 test] and 9.48 µM, 1.67 µM [mean of 2 tests]
M14 melanoma
  TGI: > 10 µM [1 test] and > 75 µM, 1.78 µM, 2.15 µM [mean of 2 tests]
MALME-3M melanoma
  GI50: 153 nM [1 test] and 27.7 nM, 33.6 nM, 43.6 nM [mean of 2 tests]
MCF7 breast
  GI50: 8.04 nM [1 test] and 7.5 nM, < 10.4 nM, < 10 nM [mean of 2 tests]
MDA-MB-231 breast
  TGI: > 10 µM [1 test] and > 75 µM, 8.4 µM, 3.85 µM [mean of 2 tests]
MDA-MB-435
  TGI: > 10 µM [1 test] and > 75 µM, 2.33 µM, 2.25 µM [mean of 2 tests]
MOLT-4 leukemia
  TGI: > 75 µM [sample A, mean of 2 tests] and 3.92 µM [sample B, mean of 2 tests] and > 10 µM [sample C, 1 test]
NCI-H522 lung
  TGI: > 10 µM [1 test] and > 75 µM, 2.72 µM, > 100 µM [mean of 2 tests]
PC-3 prostate
  GI50: 77.7 nM [1 test] and 38.1 nM, 25.7 nM, 24.6 nM [mean of 2 tests]
RXF 393 renal
  GI50: 102 nM [1 test] and 49.7 nM, 68.5 nM, 22.6 nM [mean of 2 tests]
  TGI: 425 nM [1 test] and 319 nM, 435 nM, 145 nM [mean of 2 tests]
SF-268 CNS
  GI50: 199 nM [1 test] and 36.4 nM, 155 nM, 54.6 nM [mean of 2 tests]
SF-539 CNS
  GI50: 128 nM [1 test] and 52.7 nM, 64 nM, 37.5 nM [mean of 2 tests]
SK-MEL-2 melanoma
  TGI: 2.44 µM [1 test] and 12.3 µM, 1.38 µM, 2.69 µM [mean of 2 tests]
SK-MEL-28 melanoma
  GI50: 97.3 nM [1 test] and 45.5 nM, 86.4 nM, 28.9 nM [mean of 2 tests]
SK-OV-3 ovarian
  GI50: 8.45 nM, < 10 nM [1 test] and 9.66 nM, < 14.4 nM [mean of 2 tests]
SR leukemia
  TGI: > 75 µM [sample A, mean of 2 tests] and 7.26 µM [sample B, 1 test] and > 10 µM [sample C, 1 test]
TK-10 renal
  GI50: 27.4 nM [1 test] and < 15.7 nM, < 16.1 nM, < 13 nM [mean of 2 tests]
U251 CNS
  GI50: 344 nM [1 test] and 152 nM, 187 nM, 63.5 nM [mean of 2 tests]
UACC-257 melanoma
  TGI: > 55.8 µM [sample A, mean of 2 tests] and 719 nM [sample B, mean of 2 tests] and 2.6 µM [sample C, 1 test]
UO-31 renal
  TGI: > 75 µM [sample A, 1 test] and > 100 µM [sample B, mean of 2 tests] and 730 nM [sample C, 1 test]
